Residue numbers refer to the chain shown, from its start. In names and notes the source's numbering stands.

B1: PD1 0379 IgG-IL2v (P1AD4370) (other)
light: DIQMTQSPSSLSASVGDRVTITCRASESVDTSDNSFIHWYQQKPGKSPKLLIYRSSTLESGVPSRFSGSGSGTDFTLTISSLQPEDFATYYCQQNYDVPWTFGQGTKVEIKRTVAAPSVFIFPPSDEQLKSGTASVVCLLNNFYPREAKVQWKVDNALQSGNSQESVTEQDSKDSTYSLSSTLTLSKADYEKHKVYACEVTHQGLSSPVTKSFNRGEC
heavy 1: EVQLLESGGGLVQPGGSLRLSCAASGFSFSSYTMSWVRQAPGKGLEWVATISGGGRDIYYPDSVKGRFTISRDNSKNTLYLQMNSLRAEDTAVYYCVLLTGRVYFALDSWGQGTLVTVSSASTKGPSVFPLAPSSKSTSGGTAALGCLVKDYFPEPVTVSWNSGALTSGVHTFPAVLQSSGLYSLSSVVTVPSSSLGTQTYICNVNHKPSNTKVDKKVEPKSCDKTHTCPPCPAPEAAGGPSVFLFPPKPKDTLMISRTPEVTCVVVDVSHEDPEVKFNWYVDGVEVHNAKTKPREEQYNSTYRVVSVLTVLHQDWLNGKEYKCKVSNKALGAPIEKTISKAKGQPREPQVCTLPPSRDELTKNQVSLSCAVKGFYPSDIAVEWESNGQPENNYKTTPPVLDSDGSFFLVSKLTVDKSRWQQGNVFSCSVMHEALHNRFTQKSLSLSPGK
heavy 2: EVQLLESGGGLVQPGGSLRLSCAASGFSFSSYTMSWVRQAPGKGLEWVATISGGGRDIYYPDSVKGRFTISRDNSKNTLYLQMNSLRAEDTAVYYCVLLTGRVYFALDSWGQGTLVTVSSASTKGPSVFPLAPSSKSTSGGTAALGCLVKDYFPEPVTVSWNSGALTSGVHTFPAVLQSSGLYSLSSVVTVPSSSLGTQTYICNVNHKPSNTKVDKKV[human IgG1 Fc with changes not written out]GGGGSGGGGSGGGGSAPASSSTKKTQLQLEHLLLDLQMILNGINNYKNPKLTRMLTAKFAMPKKATELKHLQCLEEELKPLEEVLNGAQSKNFHLRPRDLISNINVIVLELKGSETTFMCEYADETATIVEFLNRWITFAQSIISTLT
notes: also called PD1 379 IgG-huIL2v; P1AD4370-002
B2: PD1 376 IgG-huIL2v N88A (P1AE0495) (other)
light: DIVMTQSPDSLAVSLGERATINCKASESVDTSDNSFIHWYQQKPGQSPKLLIYRSSTLESGVPDRFSGSGSGTDFTLTISSLQAEDVAVYYCQQNYDVPWTFGQGTKVEIKRTVAAPSVFIFPPSDEQLKSGTASVVCLLNNFYPREAKVQWKVDNALQSGNSQESVTEQDSKDSTYSLSSTLTLSKADYEKHKVYACEVTHQGLSSPVTKSFNRGEC
heavy 1: B1 heavy 1 with R438H, F439Y
heavy 2: EVQLLESGGGLVQPGGSLRLSCAASGFSFSSYTMSWVRQAPGKGLEWVATISGGGRDIYYPDSVKGRFTISRDNSKNTLYLQMNSLRAEDTAVYYCVLLTGRVYFALDSWGQGTLVTVSSASTKGPSVFPLAPSSKSTSGGTAALGCLVKDYFPEPVTVSWNSGALTSGVHTFPAVLQSSGLYSLSSVVTVPSSSLGTQTYICNVNHKPSNTKVDKKV[human IgG1 Fc with changes not written out]GGGGSGGGGSGGGGSAPASSSTKKTQLQLEHLLLDLQMILNGINNYKNPKLTRMLTAKFAMPKKATELKHLQCLEEELKPLEEVLNGAQSKNFHLRPRDLISAINVIVLELKGSETTFMCEYADETATIVEFLNRWITFAQSIISTLT
notes: Immunoconjugate: anti-human PD-1 (376) IgG1 PG LALA knob/hole, IL2v variant on the knob heavy chain; also called P1AE0495-004
B3: FAP 4B9 IgG-huIL2v_S87A (P1AE4813) (other)
light: EIVLTQSPGTLSLSPGERATLSCRASQSVTSSYLAWYQQKPGQAPRLLINVGSRRATGIPDRFSGSGSGTDFTLTISRLEPEDFAVYYCQQGIMLPPTFGQGTKVEIKRTVAAPSVFIFPPSDEQLKSGTASVVCLLNNFYPREAKVQWKVDNALQSGNSQESVTEQDSKDSTYSLSSTLTLSKADYEKHKVYACEVTHQGLSSPVTKSFNRGEC
heavy 1: EVQLLESGGGLVQPGGSLRLSCAASGFTFSSYAMSWVRQAPGKGLEWVSAIIGSGASTYYADSVKGRFTISRDNSKNTLYLQMNSLRAEDTAVYYCAKGWFGGFNYWGQGTLVTVSSASTKGPSVFPLAPSSKSTSGGTAALGCLVKDYFPEPVTVSWNSGALTSGVHTFPAVLQSSGLYSLSSVVTVPSSSLGTQTYICNVNHKPSNTKVDKKVEPKSCDKTHTCPPCPAPEAAGGPSVFLFPPKPKDTLMISRTPEVTCVVVDVSHEDPEVKFNWYVDGVEVHNAKTKPREEQYNSTYRVVSVLTVLHQDWLNGKEYKCKVSNKALGAPIEKTISKAKGQPREPQVCTLPPSRDELTKNQVSLSCAVKGFYPSDIAVEWESNGQPENNYKTTPPVLDSDGSFFLVSKLTVDKSRWQQGNVFSCSVMHEALHNHYTQKSLSLSPGK
heavy 2: EVQLLESGGGLVQPGGSLRLSCAASGFTFSSYAMSWVRQAPGKGLEWVSAIIGSGASTYYADSVKGRFTISRDNSKNTLYLQMNSLRAEDTAVYYCAKGWFGGFNYWGQGTLVTVSSASTKGPSVFPLAPSSKSTSGGTAALGCLVKDYFPEPVTVSWNSGALTSGVHTFPAVLQSSGLYSLSSVVTVPSSSLGTQTYICNVNHKPSNTKVDKKV[human IgG1 Fc with changes not written out]GGGGSGGGGSGGGGSGGGGSGGGGSAPASSSTKKTQLQLEHLLLDLQMILNGINNYKNPKLTRMLTAKFAMPKKATELKHLQCLEEELKPLEEVLNGAQSKNFHLRPRDLIANINVIVLELKGSETTFMCEYADETATIVEFLNRWITFAQSIISTLT
notes: Immunoconjugate: anti-FAP IgG1 PG LALA knob/hole, IL2v variant on the knob heavy chain; also called P1AE4813-003
B4: FAP 4B9 IgG-huIL2v_S130A (P1AE4814) (other)
light: B3 light
heavy 1: B3 heavy 1
heavy 2: EVQLLESGGGLVQPGGSLRLSCAASGFTFSSYAMSWVRQAPGKGLEWVSAIIGSGASTYYADSVKGRFTISRDNSKNTLYLQMNSLRAEDTAVYYCAKGWFGGFNYWGQGTLVTVSSASTKGPSVFPLAPSSKSTSGGTAALGCLVKDYFPEPVTVSWNSGALTSGVHTFPAVLQSSGLYSLSSVVTVPSSSLGTQTYICNVNHKPSNTKVDKKV[human IgG1 Fc with changes not written out]GGGGSGGGGSGGGGSGGGGSGGGGSAPASSSTKKTQLQLEHLLLDLQMILNGINNYKNPKLTRMLTAKFAMPKKATELKHLQCLEEELKPLEEVLNGAQSKNFHLRPRDLISNINVIVLELKGSETTFMCEYADETATIVEFLNRWITFAQSIIATLT
notes: Immunoconjugate: anti-FAP IgG1 PG LALA knob/hole, IL2v variant on the knob heavy chain; also called P1AE4814-003
B5: FAP 4B9 IgG-huIL2v_T133K (P1AE4816) (other)
light: B3 light
heavy 1: B3 heavy 1
heavy 2: EVQLLESGGGLVQPGGSLRLSCAASGFTFSSYAMSWVRQAPGKGLEWVSAIIGSGASTYYADSVKGRFTISRDNSKNTLYLQMNSLRAEDTAVYYCAKGWFGGFNYWGQGTLVTVSSASTKGPSVFPLAPSSKSTSGGTAALGCLVKDYFPEPVTVSWNSGALTSGVHTFPAVLQSSGLYSLSSVVTVPSSSLGTQTYICNVNHKPSNTKVDKKV[human IgG1 Fc with changes not written out]GGGGSGGGGSGGGGSGGGGSGGGGSAPASSSTKKTQLQLEHLLLDLQMILNGINNYKNPKLTRMLTAKFAMPKKATELKHLQCLEEELKPLEEVLNGAQSKNFHLRPRDLISNINVIVLELKGSETTFMCEYADETATIVEFLNRWITFAQSIISTLK
notes: Immunoconjugate: anti-FAP IgG1 PG LALA knob/hole, IL2v variant on the knob heavy chain; also called P1AE4816-003

The target in one test is T1, hu IL2R beta-gamma-Fc (P1AD7029-002) (human, UniProt P14784 27-240; P31785 23-262).
T1 construct: Analyte in all SPR runs; also called human IL2R beta-gamma Fc; recombinant human IL2Rbeta-gamma-Fc heterodimer; not shown: Fc part and any linker of the heterodimer
T1 sequence (looked up) 1: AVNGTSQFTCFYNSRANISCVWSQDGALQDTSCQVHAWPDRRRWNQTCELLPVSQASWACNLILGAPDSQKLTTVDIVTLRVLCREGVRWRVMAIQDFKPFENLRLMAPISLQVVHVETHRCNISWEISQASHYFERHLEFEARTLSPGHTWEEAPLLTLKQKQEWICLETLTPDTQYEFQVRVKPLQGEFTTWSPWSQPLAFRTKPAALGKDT
T1 sequence (looked up) 2: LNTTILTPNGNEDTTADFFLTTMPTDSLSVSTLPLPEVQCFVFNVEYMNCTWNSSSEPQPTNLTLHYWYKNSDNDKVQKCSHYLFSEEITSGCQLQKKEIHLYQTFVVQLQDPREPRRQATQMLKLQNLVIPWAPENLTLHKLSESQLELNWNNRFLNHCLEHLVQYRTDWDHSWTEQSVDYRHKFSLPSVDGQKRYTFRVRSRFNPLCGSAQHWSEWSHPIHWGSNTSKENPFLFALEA
In words: SPR, purified, captured via anti-human Fc, IL2Rbg-Fc analyte, 1:1 Langmuir. The text has this: (§1) Bulk refractive index differences were corrected for by subtracting the response obtained on the reference flow cell 1.
For the molecule B1, the affinity, expressed as Kd, was 0.1 nM; the koff amounted to 2.14e-05 s⁻¹; the kon is 202000 M⁻¹ s⁻¹.

In the case of B2, the Kd is 1.5 nM, the koff is 0.00017 s⁻¹ and the kon came out at 115000 M⁻¹ s⁻¹.

The next test has as its target T1, hu IL2R beta-gamma-Fc (P1AD7029-002). In words: SPR, captured via anti-human Fc, IL2Rbg-Fc analyte, 1:1 Langmuir.
Source text: as §1
Regarding B3, the Kd turned out to be 0.7 nM, the koff is 3.02e-05 s⁻¹ and the on-rate (kon) came out at 40500 M⁻¹ s⁻¹.

For the molecule B4, the Kd was determined as 0.1 nM, the koff worked out at 4.23e-06 s⁻¹ and the kon came to 34500 M⁻¹ s⁻¹.

As for B5, the affinity, expressed as Kd, was 0.003 nM; the koff was 1.07e-07 s⁻¹; the kon is 33000 M⁻¹ s⁻¹.

These data come from patent publication US20260083855A1 (Hoffmann-La Roche, published 2026).
